# Data taken from PubChem BioAssay AID686971 (National Center for Advancing Translational Sciences (NCATS), 2013).
# Values joined by “and” are separate entries in the source; they are usually repeats but may differ in a detail not shown here. Equal entries are not always repeated. Screen size: about 360,000 compounds; about 7,500 (2.1%) were called active. Inconclusive means that the source gave no clear call. Such entries were picked first, then a sample of the others. Calls come from the whole dose curve; as a rule, active = well fitted cell-killing curve with a large enough effect; inconclusive = small, poorly fitted or top-dose-only effect, or effect the other way, or another doubt; inactive = no such curve, though single readings can be large or run the other way. Potencies beside an inconclusive call are fits to weak or partial responses and may not hold up.
# Experiment: qHTS for induction of synthetic lethality in tumor cells producing 2HG: qHTS for the HT-1080-IDH1KD cell line;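 for activity, negative = toxicity: 0% = DMSO wells and -100% = cell-free medium wells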
# Conditions: HT-1080 IDH1 knockdown viability, ATP luminescence, 48 h; activity, negative = toxicity: at 46.1 µM (top of the series) unless noted
# Summary of the method: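 CellTiter-Glo luminescence after 48 h compound exposure at 37 degrees C of IDH1-knockdown HT-1080 cells in 5% FBS RPMI. %Activity scaled between DMSO wells and cell-free media wells, with curves fitted and assigned curve classes.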
# Potency is the fitted concentration of half-maximal effect; tags give direction and shape of the fitted curve.
Compound,Potency,"activity, negative = toxicity"
Cc1cccc(N2CCN(C(=O)N3CCOCC3)CC2)c1C,"inconclusive: 29.1 µM [cytotoxic, single point]",
COc1cc(/C=C2/C(=O)NN(c3ccc(F)cc3)C2=O)cc([N+](=O)[O-])c1O,"inconclusive: 11.6 µM [cytotoxic, partial curve]",
Cc1ccc(S(=O)(=O)Nc2ccc3c(c2)C(=O)N([C@H](C)CO)C[C@@H](C)[C@@H](CN(C)C(=O)Nc2cccc4ccccc24)O3)cc1,"inconclusive: 23.1 µM [cytotoxic, single point]",
CCOc1ccc(OCC)c(NC(=O)c2nnn(CC(=O)Nc3cc(C)cc(C)c3)c2N)c1,active: 20.6 µM,
N#C/C(C(N)=O)=C1/SC=C(c2ccccc2)N1c1ccccc1,"inconclusive: 29.1 µM [cytotoxic, single point]",
C=CCNC(=O)CN1C(=O)NC(C)(c2ccc(OC)cc2)C1=O (stereo not given),,inactive: 1.85%
Cc1cc(=O)[nH]c(SCc2nc3ccccc3n2Cc2ccccc2)n1,"inconclusive: 35.5 µM [cytotoxic, single point]",
Cc1cc(C(=O)N2CCCC(C)(C(=O)NS(=O)(=O)C3CC3)C2)n(C(C)(C)C)n1 (stereo not given),,inconclusive: 34.5%
Cc1ccc(Cc2c(-c3ccco3)nc3ccc(Br)cn23)cc1,active: 16.4 µM,
Cc1cccc(Nc2c3c(nc4ccccc24)CCC3)c1,active: 20.6 µM,
CC(C)CC1Nc2ncnc(N3CCN(c4ccccn4)CC3)c2N(Cc2ccc(Cl)cc2)C1=O (stereo not given),"inconclusive: 29.1 µM [cytotoxic, single point] and inconclusive: 23.1 µM [cytotoxic, single point]",
CCN1C(=O)C(CC(=O)Nc2ccc(OC)cc2)N(CCc2ccccc2)C1=S (stereo not given),"inconclusive: 11.6 µM [cytotoxic, partial curve]",
Oc1ccc(-c2nccc(-c3cccs3)n2)cc1,"inconclusive: 23.1 µM [cytotoxic, single point]",
O=S(=O)(c1ccccc1)N1N=C(c2cccs2)CC1c1ccc(Br)cc1 (stereo not given),,inactive: 6.91%
CSc1ccc(S(=O)(=O)NCC(=O)OCC(=O)N2CC(C)CC(C)C2)cc1[N+](=O)[O-] (stereo not given),,inactive: -0.0796%
C(=C\c1nc2ccccc2[nH]1)/c1ccccc1,active: 18.4 µM,
Nc1ccccc1C(=O)NC(=O)Nc1ccc(Oc2ncc(Br)cn2)c(Cl)c1,"inconclusive: 0.411 µM [cytotoxic, full curve, poor fit]",
Cc1cc(N/N=C/c2ccc(O)cc2O)nc(-n2nc(C)cc2C)n1,"inconclusive: 9.2 µM [cytotoxic, partial curve]",
Nc1ccccc1C#CC(=O)c1ccccc1,"inconclusive: 20.6 µM [cytotoxic, partial curve]",
CC(C)C[C@H](NC(=O)c1[nH]cnc1C(=O)Nc1ccccc1F)C(=O)OC(C)(C)C,"inconclusive: 18.4 µM [cytotoxic, single point]",
O=C(Nc1nccs1)c1ccc(COc2ccccc2Cl)o1,"inconclusive: 10.3 µM [cytotoxic, partial curve, poor fit]",
C=CCC[C@H](Cc1ccc(F)cc1)C(=O)OC[C@H](Cc1c[nH]c2ccccc12)NC(=O)[C@@H](CC=C)CC(=O)NCCO,,inactive: -7.5%
O=C1[C@H](Cc2ccccc2)NCC=CC[C@H](c2ccc(Cl)cc2)N1Cc1ccc(Cl)cc1,"inconclusive: 20.6 µM [cytotoxic, single point]",

Compound,Potency,"activity, negative = toxicity"
Cc1ccc2nc(-c3ccccc3)c(Cc3cccc(F)c3)n2c1,"inconclusive: 18.4 µM [cytotoxic, single point]",
O=C(c1cc2c(s1)-c1ccccc1OC2)N1CCc2ccccc2C1,,inactive: 6.22%
O=C(Nc1ccccc1)c1cn2ccccc2n1,"inconclusive: 14.6 µM [cytotoxic, single point]",
O=C(Nc1ccc(Cl)cc1)N1N=CCC1c1ccccc1 (stereo not given),,inactive: -4.23%
O=C(CN1C2=NCCCN2c2ccccc21)c1ccc(Cl)cc1Cl,,inactive: -28.2%
CCOC(=O)C1C(=O)C=C(c2ccc(Br)cc2)CC1c1ccco1 (stereo not given),,inactive: -13.8%
O=C(Nc1ccccc1C(=O)N/N=C/c1ccc(F)cc1)c1ccccc1Br,"inconclusive: 20 µM [cytotoxic, single point]",
COc1ccc(C(=O)N/C(=C\c2cn(S(=O)(=O)N(C)C)c3ccccc23)C(=O)NCCN2CCOCC2)cc1,,inactive: 2.64%
O=C(CSc1cccc[n+]1[O-])c1cc2ccccc2o1,active: 16.4 µM,
CCOC(=O)c1c(-c2ccc(F)cc2)csc1NC(=O)CN1C(=O)NC2(CCCCC2C)C1=O (stereo not given),"inconclusive: 18.4 µM [cytotoxic, single point]",
CNc1nc(-c2ccccn2)nnc1-c1ccccc1,"inconclusive: 15.8 µM [cytotoxic, single point]",
O=C(N/N=C/C1=C(N2CCOCC2)C(=C\c2ccccc2)/CC1)Nc1ccccc1,active: 7.31 µM,
CC(C)(C)NCCC(O)c1cc(C(F)(F)F)nc2c(C(F)(F)F)cccc12 (stereo not given),"inconclusive: 20.6 µM [cytotoxic, single point]",
Cc1cccc(OCC(=O)Nc2ccccc2N2CCCCC2)c1C,"inconclusive: 16.4 µM [cytotoxic, partial curve]",
NS(=O)(=O)c1cccc(NC(=O)Cn2nc(C(=O)O)c3ccccc3c2=O)c1,,inactive: -11%
O=C1c2ccccc2C(=O)C1c1nccc2ccccc12,,inactive: -5.61%
C=CCSc1nc(N)c(C#N)c(-c2ccc(C)cc2)c1C#N,,inactive: -3.65%
COc1ccc2c(CCNC(=O)/C=C/c3ccc(OC)c(OC)c3)c[nH]c2c1,,inactive: -24.7%
Cc1oc(-c2ccc(Cl)cc2)nc1CS(=O)CC(=O)NCCCN1CCN(Cc2ccccc2)CC1 (stereo not given),"inconclusive: 20.6 µM [cytotoxic, partial curve]",
O=C(Nc1ccc(NC(=O)c2cccs2)cc1)c1ccco1,"inconclusive: 29.1 µM [cytotoxic, single point]",
COc1ccc(S(=O)(=O)Nc2ccc3c(c2)N(C(C)=O)CCC3)cc1OC,,inactive: 1.85%
O=C1c2ccccc2C(c2nnnn2-c2ccc3c(c2)OCCO3)N1CCc1c[nH]c2ccccc12 (stereo not given),"inconclusive: 29.1 µM [cytotoxic, single point]",
